# The full ranking holds about 33,000 sequences; the median of “E-score (-0.5 to 0.5)” is about -0.04, and the highest 2% start at about 0.36. This is one part of the list.
# Target: T1, Hmlalpha2 (UniProt P0CY09)
# T1 sequence: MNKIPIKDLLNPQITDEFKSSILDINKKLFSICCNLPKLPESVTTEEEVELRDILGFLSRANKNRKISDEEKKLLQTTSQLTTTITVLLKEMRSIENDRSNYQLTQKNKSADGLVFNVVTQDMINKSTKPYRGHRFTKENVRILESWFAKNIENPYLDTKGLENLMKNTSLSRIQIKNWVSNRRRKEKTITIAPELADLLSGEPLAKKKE
# Assay: PBM E-score (8-mer binding enrichment) (E-score (-0.5 to 0.5)); higher = stronger / more preferred TF binding; most listed sequences are background and not binding sites
# Settings: protein concentration: 200 nM; construct: GST-full length
# How it was run: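 Each ungapped eight-base word and its reverse complement, pooled, received an E-score from the Universal PBM Analysis Suite. Underlying scans, normalised with masliner, recorded fluorescent anti-GST bound to GST-tagged yeast transcription factors. These were applied at about 100-200 nM to universal all-10-mer Agilent arrays double-stranded by primer extension.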
row,Sequence,PBM E-score
1,GGCAAGCC,-0.22
2,AAACTTCT,0.171
3,AAGGACAA,0.102
4,AATTTGTG,0.0268
5,CGGCTTAG,-0.2
6,ACTCCCTA,0.162
7,CCTAACAC,0.342
8,ACGGTCTC,-0.117
9,AGTACGCC,-0.169
10,ATTAGTCG,-0.00776
11,GGGTAGTA,-0.0737
12,CACATCAG,-0.0878
13,CCATCGCG,0.0465
14,GCATTTAA,0.202
15,GAAGTCCA,-0.173
16,AGAAGGCA,-0.157
17,CCGAGCAC,-0.188
18,AGCGCCGC,-0.147
19,GTCGTCGA,-0.0273
20,AATGCCGA,-0.0788
21,CACCCGAA,-0.106
22,ACGAAATG,-0.0535
23,GGCGAAAA,-0.00476
24,AGCAGAGA,-0.187
25,ACGCTGTA,0.199

row,Sequence,PBM E-score
1,ACGTAGGA,0.141
2,CTTTAGAA,0.0717
3,CTGCCGCA,-0.358
4,CTATAATC,-0.0966
5,GCCCAGGA,-0.11
6,GCGGCAGC,-0.34
7,TAACTATA,0.159
8,GACTAGCA,-0.0999
9,AATCGAAT,0.00768
10,GGAGAGAC,-0.305
11,AGCTTGTA,0.379
12,ATAAAGAT,0.18
13,ACTTAGAC,0.127
14,GCCCTACA,-0.0533
15,ACTGTAAG,0.0573
16,ACTTAAAT,-0.0553
17,TATAGTGA,-0.118
18,CGCCCACC,-0.125
19,GTGTTAAC,0.462
20,TCGTAGCA,0.161
21,ACTTAGTC,-0.182
22,GCATCTAA,0.0404
23,AGAAAGGC,-0.135
24,CGTATAGA,0.0477
25,CGTCCTTC,-0.152

row,Sequence,PBM E-score
1,TCTAGCAA,0.019
2,CACGGAAC,0.0677
3,CCCTATCG,-0.272
4,ATTCCGAA,0.0886
5,ATGGGAAC,-0.177
6,CATCATAG,-0.0614
7,ATAGCGGG,-0.129
8,CCTACCAC,-0.263
9,GGACACAA,0.168
10,CAGTCGCG,-0.168
11,ATCACTGG,-0.0104
12,CACGTTTC,0.0339
13,ATGCTCAA,-0.109
14,ATCTTGCG,-0.116
15,ACGCAGTA,0.142
16,CCGTGAGA,-0.277
17,CTCTGCTA,-0.158
18,GGATGTCA,0.133
19,ACGCGGAC,0.198
20,CTTGTAGC,0.16
21,CCACGCCA,-0.0592
22,GCTGGTAC,-0.136
23,AGCCCCCT,-0.331
24,GTCGTAGA,-0.0441
25,CATCCAGA,-0.157

row,Sequence,PBM E-score
1,ACTAGCAA,0.106
2,CGTGGTGA,-0.0179
3,CCACACAA,-0.0216
4,CGGCGCGA,0.0333
5,ACCCGATA,-0.208
6,AGCCCACT,-0.239
7,AGGATGAT,-0.0283
8,ACCGGATG,0.0199
9,GGCTCAGA,-0.122
10,GGCATCCC,-0.318
11,CGACGCGA,0.0852
12,CCGGGTCG,-0.125
13,ACGGTGCT,-0.242
14,CGGCAAGA,-0.0264
15,GGCACTAA,-0.0245
16,ACATCCAC,0.0839
17,AGCCGTCC,-0.189
18,AATGGTAC,0.0651
19,AAAAATAG,0.141
20,GGTGCTGA,-0.212
21,GAGTGTTA,0.21
22,ACTTTGAT,-0.0739
23,AAAGTACA,0.262
24,GCTTTTCC,-0.184
25,AGTAAGCA,0.0205

row,Sequence,PBM E-score
1,CAACCTTC,0.0257
2,GAGGGCTA,-0.217
3,TCTGATCA,-0.0854
4,GAGCATCA,-0.213
5,TCTCGCAA,-0.103
6,AGCTCCTA,-0.165
7,CTATGCGC,-0.0691
8,CGAACGAC,-0.0163
9,CCTGACAA,0.0323
10,AGGCTGTC,-0.273
11,TACGGCAA,0.0454
12,CCAGGGTC,-0.194
13,CCCGCATC,-0.169
14,GATCCGCA,-0.215
15,AACCCCAA,0.0146
16,ATTCCAGG,-0.0979
17,ACCTGTAC,0.165
18,GATAAGTA,0.0843
19,CCCGTCCA,-0.234
20,AGACCTCG,-0.165
21,ACAATGGT,-0.0479
22,GAATGGTC,-0.161
23,CCATAGTC,-0.225
24,AAGCGATT,-0.137
25,AGCCGACG,-0.0963

row,Sequence,PBM E-score
1,TCAAGCAA,-0.0826
2,CCGCGTGA,0.102
3,CTTCGGGA,-0.186
4,CGAGATCA,-0.169
5,CCACTCCA,-0.214
6,CATTGCCA,0.174
7,ACTTCGTG,0.119
8,TATCGTCA,-0.00037
9,CGAAAATC,0.178
10,AGCTACAT,0.264
11,ACGCGGCT,0.271
12,AGTACCTG,0.0548
13,CCATTCTA,-0.0568
14,ACACCGGA,-0.00859
15,GCCTGCGC,-0.279
16,GACGTAAA,0.28
17,ACTTTCAA,-0.00135
18,GTAACCAA,0.136
19,GATAAGAC,-0.0897
20,CAGTGAAC,0.0896
21,CAGGTGTA,0.235
22,GCGCGGAA,-0.193
23,GCTGCGTA,0.301
24,GAGACGCA,-0.0522
25,GAAGGGCC,-0.111

row,Sequence,PBM E-score
1,GTCCAATA,-0.0374
2,AAGAAAAT,0.169
3,CGCAATCA,0.00959
4,CAGGTACG,-0.0832
5,CTATAAGC,0.0531
6,GAGACATC,-0.268
7,GACTACTA,0.0788
8,ATGGCTAC,-0.00025
9,AGGCGGGA,-0.0554
10,CAAGCGTC,-0.0593
11,CATGCGGG,-0.0713
12,AAAGCGAT,-0.072
13,CGCTACAG,-0.0307
14,ATGCTACC,0.017
15,ATTCGATA,0.0276
16,GGAAAAAA,0.0247
17,CAAGACGC,-0.0979
18,TCCGGTAA,-0.0221
19,CACCAAGG,-0.306
20,GAGAAAAA,-0.0271
21,TCAAGAAA,0.181
22,AATACCTA,0.227
